The whole screen tested about 410,000 compounds, of which about 850 (0.21%) were called active. Inconclusive means that the source gave no clear call. Such entries were picked first, then a sample of the others. Calls come from the whole dose curve; as a rule, active = well fitted inhibition curve with a large enough effect; inconclusive = small, poorly fitted or top-dose-only effect, or another doubt; inactive = no such curve, though single readings can be large or run the other way. No potency is given beside an inconclusive call; the fits are too rough.
Molecular target: Glutaminase kidney isoform, mitochondrial (Homo sapiens) (UniProt O94925)
Experiment: qHTS for Inhibitors of Glutaminase (GLS)
Settings: GLS enzymatic activity, qHTS titration; series mostly up to 45.5 µM; activity change, negative = inhibition: at the top concentration
Procedure, shortened: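 Two-point fluorescence kinetic (t0, 30 min RT) for hKGA; glutamate detected via glutamate oxidase–HRP–Amplex Red. Substrate: 1 mM L-glutamine solution; buffer 45 mM KH2PO4, pH 8.2.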
% is set by controls: 0 for no effect and ±100 for the full control effect; potency is the fitted concentration of half-maximal effect; tags give direction and shape of the fitted curve.

Sequence of UniProt O94925 (O94925 whole entry, looked up, canonical isoform): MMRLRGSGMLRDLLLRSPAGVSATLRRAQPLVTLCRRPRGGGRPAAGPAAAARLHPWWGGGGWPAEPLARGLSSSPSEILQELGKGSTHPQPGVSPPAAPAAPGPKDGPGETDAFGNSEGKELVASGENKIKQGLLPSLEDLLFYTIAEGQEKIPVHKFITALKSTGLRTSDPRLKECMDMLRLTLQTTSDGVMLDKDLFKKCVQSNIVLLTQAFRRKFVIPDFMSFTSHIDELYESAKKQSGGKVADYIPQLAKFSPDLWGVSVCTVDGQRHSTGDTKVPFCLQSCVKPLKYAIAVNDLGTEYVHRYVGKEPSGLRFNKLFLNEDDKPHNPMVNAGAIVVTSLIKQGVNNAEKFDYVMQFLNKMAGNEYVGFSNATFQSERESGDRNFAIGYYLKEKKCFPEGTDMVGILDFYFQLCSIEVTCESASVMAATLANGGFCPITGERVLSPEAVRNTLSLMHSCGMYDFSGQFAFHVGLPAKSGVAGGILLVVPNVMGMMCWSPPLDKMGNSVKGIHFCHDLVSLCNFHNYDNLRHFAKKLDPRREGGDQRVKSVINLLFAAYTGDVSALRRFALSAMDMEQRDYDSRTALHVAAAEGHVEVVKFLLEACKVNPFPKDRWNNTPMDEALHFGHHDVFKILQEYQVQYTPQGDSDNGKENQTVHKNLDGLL

| Structure (SMILES) | Potency | activity change, negative = inhibition |
| --- | --- | --- |
| Cc1ccc(S(=O)(=O)NNC2=NS(=O)(=O)c3ccccc32)c(C)c1 | inconclusive [inhibitor, single point] |  |
| COCCCN1C(=O)/C(=C/c2ccc(CNS(=O)(=O)c3ccccc3)o2)C(C(=O)OC)=C1C |  | inactive: 1.82% |
| CCN(CC)c1ccc(NC(=O)COC(=O)C23CCC(=O)N2c2ccccc2S3)cc1 (centres undefined) |  | inactive: 8.89% |
| O=S(=O)(c1cccs1)N1CCN(c2ccc(O)cc2)CC1 | inconclusive [inhibitor, single point] |  |
| Cc1cc(Cl)c2oc(C(=O)NCCN3CCOC3=O)c(C)c2c1 |  | inactive: -3.6% |
| O=C(N/N=C/c1ccc(O)c(O)c1)c1cc(-c2ccccc2)nc2ccccc12 | active: 12.6 µM |  |
| COc1ccc(-n2c(-c3ccc(OC)c(OC)c3)n[nH]c2=S)cc1 | inconclusive [inhibitor, full curve] |  |
| N#Cc1c(-c2ccco2)c2c([nH]c1=S)CCCC2 | inconclusive [inhibitor, single point] |  |
| C/C=C/C(=O)Nc1cccc(C2=NOC3(C2)C[C@@H](C(N)=O)N(C(=O)c2cc([N+](=O)[O-])cc([N+](=O)[O-])c2)C3)c1 (some centres undefined) | inconclusive [inhibitor, single point] |  |
| O=C(O)c1cccc(S(=O)(=O)Nc2ccc(O)c(Sc3nc4ccccc4s3)c2)c1 | inconclusive [inhibitor, single point] |  |
| CC1=NNC(=O)/C1=C\c1cn(-c2ccccc2)nc1-c1ccc(F)cc1 |  | inactive: 5.41% |
| O=C(O)C1Oc2cc3ccccc3cc2O1 | inconclusive [inhibitor, partial curve] |  |
| N#Cc1c(/N=C/c2ccco2)sc2c1CCC2 |  | inactive: 14% |
| Cc1cccc(-n2c(O)c(C=Nc3cc(O)ccc3C)c3ccccc3c2=O)n1 | inconclusive [inhibitor, partial curve, poor fit] |  |
| Cc1cc(C(=O)COC(=O)c2cc(O)c3ccccc3c2O)c(C)n1CC1CCCO1 (centres undefined) | inconclusive [inhibitor, partial curve, poor fit] |  |
| Nc1nc(COC(=O)CCC(=O)c2ccccc2)nc(Nc2ccccc2)n1 | inconclusive [inhibitor, single point] |  |
| COc1ccc(CNC(=O)c2cccc3c(-c4cccnc4)coc23)cc1OC | inconclusive [inhibitor, single point] |  |
| CCOC(=O)c1cc(NC(=O)N(CC)C2CCCCC2)c(C)nc1C | inconclusive [inhibitor, single point] |  |
| O=[N+]([O-])c1cc(S(=O)(=O)Nc2cccc(Cl)c2)ccc1N=Nc1c(O)[nH]c2ccccc12 | inconclusive [inhibitor, single point] |  |
